Test results reported in the supplement of paper PMC4604168 (melanoma cell lines).
Some of the results follow. Many values rest on one well or one pass, so single values are uncertain.

Tests used:
Assay in all cases: cell count relative to DMSO control; melanoma cells; higher = more viable cells
Settings in all cases: library dose: low library concentration; 72 h
MZ2-MEL = system: MZ2-MEL
MeWo = system: MeWo
RPMI7951 = system: RPMI7951
RVH-421 = system: RVH-421
SkMel28 = system: SkMel28
SkMel2 = system: SkMel2
SkMel30 = system: SkMel30
SkMel5 = system: SkMel5
UACC257 = system: UACC257
UACC62 = system: UACC62
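Note: cell number obtained by counting DAPI-stained nuclei in high-throughput microscope images with image analysis software, screen run in 1,536-well plates.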

SMILES | cell count (MZ2-MEL) [%] | cell count (MeWo) [%] | cell count (RPMI7951) [%] | cell count (RVH-421) [%] | cell count (SkMel28) [%] | cell count (SkMel2) [%] | cell count (SkMel30) [%] | cell count (SkMel5) [%] | cell count (UACC257) [%] | cell count (UACC62) [%]
CN(c1ncccc1CNc1nc(Nc2ccc3c(c2)CC(=O)N3)ncc1C(F)(F)F)S(C)(=O)=O + COc1cc2ncnc(Nc3ccc(Oc4ccccc4)cc3)c2cc1OC [SrcI1] (first compound 0.08 µM, partner dose 2 µM) | 86.6 | 91.1 | 78.1 | 102 | 88.5 | 90 | 81.9 | 90.8 | 81.7 | 82.3
CN(c1ncccc1CNc1nc(Nc2ccc3c(c2)CC(=O)N3)ncc1C(F)(F)F)S(C)(=O)=O + COc1ccc(-c2ccc3c(N4CCOCC4)nc(N4C[C@@H](C)O[C@@H](C)C4)nc3n2)cc1CO [KU0063794] (first compound 0.08 µM, partner dose 0.02 µM) | 87.5 | 101 | 75.6 | 95.5 | 81.5 | 93.1 | 83.2 | 74.5 | 89 | 76.8
NC1(c2ccc(-c3nc4ccn5c(=O)[nH]nc5c4cc3-c3ccccc3)cc2)CCC1 + COc1ccc(-c2ccc3c(N4CCOCC4)nc(N4C[C@@H](C)O[C@@H](C)C4)nc3n2)cc1CO [KU0063794] (first compound 0.4 µM, partner dose 0.02 µM) | 90.9 | 74.7 | 84.7 | 81.7 | 68 | 84.3 | 76.3 | 103 | 53.2 | 70.2
C=C(c1ccc(C(=O)O)cc1)c1cc2c(cc1C)C(C)(C)CCC2(C)C [Bexarotene] + Cc1cc(N2CCOCC2)cc2[nH]c(-c3c(NC[C@@H](O)c4cccc(Cl)c4)cc[nH]c3=O)nc12 [BMS536924] (first compound 2 µM, partner dose 0.2 µM) | 96.1 | 94.7 | 79.9 | 107 | 78.5 | 80.1 | 97.8 | 82 | 83.8 | 102
NC1(c2ccc(-c3nc4ccn5c(=O)[nH]nc5c4cc3-c3ccccc3)cc2)CCC1 + COc1ccc(COc2ccc(Cc3cnc(N)nc3N)cc2OC)cc1 [GW2580] (first compound 0.4 µM, partner dose 1 µM) | 95.8 | 83 | 76.7 | 93.6 | 60.3 | 78.9 | 81.6 | 83.5 | 76.6 | 71.5
CCCS(=O)(=O)Nc1ccc(F)c(C(=O)c2c[nH]c3ncc(Cl)cc23)c1F + O=C(Nc1cccc(Cl)c1)Nc1ncc(CCNc2ncnc3ccsc23)s1 [SNS314] (first compound 0.08 µM, partner dose 0.0008 µM) | 89.9 | 103 | 96.8 | 89.1 | 77.5 | 103 | 101 | 132 | 102 | 70.7
CN(c1ncccc1CNc1nc(Nc2ccc3c(c2)CC(=O)N3)ncc1C(F)(F)F)S(C)(=O)=O + O=C(CCCCCCC(=O)Nc1ccccc1)NO [vorinostat] (first compound 0.08 µM, partner dose 0.08 µM) | 95.4 | 90.2 | 76.9 | 101 | 57.6 | 88 | 118 | 71.3 | 53.6 | 67
NC1(c2ccc(-c3nc4ccn5c(=O)[nH]nc5c4cc3-c3ccccc3)cc2)CCC1 + CN(NC(=O)CC(=O)NN(C)C(=S)c1ccccc1)C(=S)c1ccccc1 [STA4783] (first compound 0.4 µM, partner dose 0.006 µM) | 98.8 | 82.6 | 91.5 | 72.5 | 73.1 | 85.6 | 97.8 | 84.5 | 86.6 | 79.6
C=C(c1ccc(C(=O)O)cc1)c1cc2c(cc1C)C(C)(C)CCC2(C)C [Bexarotene] + COc1cc(N2CCC(N3CCN(C)CC3)CC2)ccc1Nc1ncc(Cl)c(Nc2ccccc2S(=O)(=O)C(C)C)n1 [NVP-TAE684] (first compound 2 µM, partner dose 0.08 µM) | 95.8 | 72 | 88.4 | 98.2 | 89.8 | 99.6 | 117 | 99.4 | 78.3 | 93.1
CN(c1ncccc1CNc1nc(Nc2ccc3c(c2)CC(=O)N3)ncc1C(F)(F)F)S(C)(=O)=O + COc1cc(Nc2ncc(F)c(Nc3ccc4c(n3)NC(=O)C(C)(C)O4)n2)cc(OC)c1OC [Tamatinib] (first compound 0.08 µM, partner dose 0.4 µM) | 75.9 | 93.4 | 66.2 | 68.6 | 78.1 | 93 | 85.2 | 92.7 | 48.6 | 75.5
NC1(c2ccc(-c3nc4ccn5c(=O)[nH]nc5c4cc3-c3ccccc3)cc2)CCC1 + O=C(CCCCCCC(=O)Nc1ccccc1)NO [vorinostat] (first compound 0.4 µM, partner dose 0.08 µM) | 97.1 | 76.2 | 97.9 | 86.9 | 58.8 | 78.9 | 145 | 85.4 | 73.2 | 70.3
